# PubChem BioAssay AID485344 (National Center for Advancing Translational Sciences (NCATS), 2010)
# Where “and” joins values, the source holds several entries; their conditions need not be identical. Equal values may be shown once. Out of some 340,000 compounds screened, about 6,900 (2%) were called active. Cut-off read from the data, not from the text of the source: active = inhibition above about 30%; inactive = below that, where a call was filed. This is a selection; strong and weak results do not stand in their true shares. Entries without a call were filed so in the source.
# Target: D(2) dopamine receptor (Homo sapiens) (UniProt P14416)
# Sequence of UniProt P14416 (P14416 whole entry, looked up): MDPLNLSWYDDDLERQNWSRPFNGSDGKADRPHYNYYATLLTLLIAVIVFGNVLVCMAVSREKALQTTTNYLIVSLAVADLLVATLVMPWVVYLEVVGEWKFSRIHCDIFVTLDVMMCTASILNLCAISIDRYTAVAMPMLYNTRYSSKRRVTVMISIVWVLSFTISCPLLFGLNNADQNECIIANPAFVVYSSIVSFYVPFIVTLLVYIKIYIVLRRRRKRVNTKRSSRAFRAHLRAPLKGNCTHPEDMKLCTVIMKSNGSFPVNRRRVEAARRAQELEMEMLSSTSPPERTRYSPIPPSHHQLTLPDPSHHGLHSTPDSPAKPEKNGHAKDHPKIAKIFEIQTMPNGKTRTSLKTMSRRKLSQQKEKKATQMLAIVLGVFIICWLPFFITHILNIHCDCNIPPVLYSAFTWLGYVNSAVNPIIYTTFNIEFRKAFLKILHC
# Assay: HTS Assay for Allosteric Antagonists of the Human D2 Dopamine Receptor: Primary Screen for Antagonists; note: 0% is about no effect
# Details: HEK293 TREx D2 cells, calcium flux, dopamine EC80; at 10 µM; stronger effect = higher value
# Summary of the method: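 Tetracycline-induced HEK293 T-REx cells expressing D2 force-coupled to calcium signalling were dye-loaded, exposed to compound for 180 s, then challenged with an EC80 of dopamine; calcium flux was followed kinetically for a further 180 s.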
row,SMILES,inhibition
1,COc1ccc(Cn2c(-c3ccc(C)cc3)nc3c(c(=O)c4ccccc4n3C)c2=O)cc1,active: 37.5%
2,O=C(NNC(=O)c1sccc1-n1cccc1)c1ccc(Cl)cc1,active: 36.4%
3,Cc1ccc(CNS(=O)(=O)c2cc(C(=O)Nc3cccc(C(F)(F)F)c3)ccc2F)cc1,5.66%
4,CCS(=O)(=O)c1ncc(Cl)c(C(=O)N2CCN(c3cccc(Cl)c3)CC2)n1,-4.58%
5,NC(=O)C1(N2CCCCC2)CCN(C(=O)Nc2ccc(C(F)(F)F)cc2)CC1,-21.1%
6,CC1c2ccccc2SC(CCCN(C)C)c2ccccc21 (stereo not given),active: 50.5%
7,Cc1ccc(NCc2ccccc2-c2nnc(-c3ccccc3Cl)o2)c(C)c1,-2.1%
8,COc1ccc(NC(=O)Nc2sc3nc4n(c(=O)c3c2C)CCC(C)CC4)cc1OC (stereo not given),6.13%
9,CCc1cc2cc3c(cc2nc1SCC(=O)Nc1cc(C)on1)OCO3,active: 31.9%
10,Cc1noc(/C=C/N(C)C)c1S(=O)(=O)N1CCCC(C(=O)Nc2ccc(F)cc2F)C1 (stereo not given),-19.9% and active: 54.1%
11,Cc1nc2c(C(=O)NCCc3ccccc3)cnn2c(C)c1Cc1c(F)cccc1Cl,0.169%
12,Cc1c2cnn(CC(=O)NCc3ccc(F)cc3)c(=O)c2c(C)n1Cc1ccccc1F,0.0946%
13,COc1ccc(Cl)cc1Nc1ncnc2c1c(-c1ccccc1)cn2-c1ccccc1,2.11%
14,CC(C)(C)OC(=O)N1CCC(c2c(C(=O)NCc3cccs3)cnn2-c2ccc(F)cc2F)CC1,0.956%
15,CCOCCCNC(=O)c1cc2c(-c3ccc(OC)c(OC)c3)nn(C)c2s1,-6.51%
16,COCCN1CCc2nc(SCC(=O)Nc3ccc(Br)cc3)[nH]c(=O)c2C1,15.9%
17,CC(c1ccccc1)n1cc(C(=O)NCC2CCCO2)nn1 (stereo not given),active: 39.6%
18,COc1cccc2cc(C(=O)NCc3ccccn3)c(=O)oc12,active: 43.7%
19,COc1cccc(/C=C/C(=O)Nc2ccc3c(c2)OCCO3)c1OC,active: 69.1%
20,Cc1cccc(-c2c3c(=O)n(C)c(=O)n(C)c3cn2-c2cc(N)c(Cl)cc2Cl)c1,-12%
21,CN(C)c1oc(/C=C/c2ccc(F)cc2)nc1C#N,-0.64%
22,CCN(c1ccccc1)c1nnc(NC(=O)Nc2cccc(Cl)c2C)s1,2.93%
23,CC(=O)c1ccc(NC(=O)Nc2nnc(N3CCCC(C)C3)s2)cc1 (stereo not given),19.4%
24,CSc1ccc(-c2nc3ncccn3c2Nc2ccc(C)c(C)c2)cc1,0.335%

row,SMILES,inhibition
1,Nc1cc(=O)nc(SCC(=O)Nc2cccc(Cl)c2)n1CCc1ccccc1,9.45%
2,CCN(CC)C(=O)c1sc(NC(=O)C(C)Sc2nc(-c3ccccc3)cc(C(F)(F)F)n2)c(C(=O)OC)c1C (stereo not given),-9.9%
3,CCC(=O)Nc1ccc(S(=O)(=O)NCc2ccc3c(c2)CCN3C(=O)c2ccc(C)cc2)cc1,2.03%
4,COC(=O)c1ccccc1NC(=O)CCC(=O)N1CCOc2ccccc21,2.9%
5,COc1ccccc1Cn1ccn(Cc2c(F)cccc2Cl)c(=O)c1=O,13.8%
6,CCOC(=O)c1c(-c2ccccc2)csc1NC(=O)c1nc(S(=O)(=O)CC)ncc1Cl,-3.54%
7,Cc1oc(C)c2c(=O)cc(-c3ccc4c(c3)OCO4)cc(OC(=O)c3ccccc3Cl)c12,-12.9%
8,Cc1c(Cl)cccc1NC(=O)Cn1c(=O)nc(-c2ccccc2)c2ccccc21,11.6%
9,CCCNC(=O)C1CCN(c2ncnc3c2nc2n3CCCCC2)CC1,15.5%
10,O=C(Cn1nc2n(c1=O)-c1ccccc1SC2)N/N=C/c1cccs1,active: 41.4%
11,COc1ccc([N+](=O)[O-])cc1NC(=O)CCN1CCN(c2ccccc2OC)CC1,active: 101%
12,C/C(=N\NC(=O)c1ccc(Br)cc1)c1cccc(NC(=O)c2cccnc2)c1,active: 32%
13,CCOC(=O)N1CCc2c(sc(NCc3ccc(OC)c(OC)c3OC)c2C(=O)Nc2ccc(OC)cc2OC)C1,20.5%
14,CCCC(=O)NCC(c1ccc2c(c1)OCO2)N1CCN(c2ccccc2)CC1 (stereo not given),14.6%
15,CCCCCOc1ccc(/C=C/C(=O)Nc2sc(C(C)=O)c(C)c2C(=O)OCC)cc1OC,6.88%
16,CCc1nnc(NC(=O)c2nc(SCc3ccccc3C)ncc2Cl)s1,16.7%
17,CCc1ccc(-n2c(=O)c3sc4ccccc4c3n(Cc3cccc(F)c3)c2=O)cc1,19.7%
18,Cn1cc(S(=O)(=O)N2CCCCCC2)cc1C(=O)NCc1ccccc1Cl,-15.6%
19,CCOc1ccc(-n2c(-c3ccccc3)c(C)n3c4c(=O)n(C)c(=O)n(C)c4nc23)cc1,-5.47%
20,COc1ccccc1CNC(=O)c1ccc2nc(-c3ccccc3)c(-c3ccccc3)nc2c1,5.74%
21,CCn1cc(C(=O)NCc2ccc(C)cc2)c(=O)c2cc(S(=O)(=O)N3CCCCCC3)ccc21,-11.1%
22,CCOc1ccc(CNC(=O)c2ccc(NC(=O)N3CCCCc4ccccc43)cc2)cc1OC,7.15%
23,O=C(CCc1nc2cccnc2n1Cc1cccs1)Nc1cccc(Cl)c1,-6.57%
24,CCCCN(C)CCCNC(=O)CC1Oc2ccccc2NC1=O (stereo not given),active: 62.5%

row,SMILES,inhibition
1,Cc1cccc(NS(=O)(=O)c2ccc(-n3cccn3)cc2)c1C,-1.05%
2,Cc1nn(C)c2c1c(C(F)(F)F)cc(=O)n2Cc1cccc(Br)c1,2%
3,CC(C)CNc1nc(Oc2ccc(OCC(N)=O)nn2)nc(N2CCOCC2)n1,11.3%
4,O=S(=O)(Nc1nc2n(n1)C(c1ccc(F)cc1)C=C(c1ccccc1)N2)c1ccc(Cl)cc1 (stereo not given),-7.33%
5,NC(=O)C1CCN(C(=O)CN2CCc3ccccc32)CC1,active: 45.3%
6,Cc1cccc(N2CCN(C3(c4ccccc4)C(=O)c4ccccc4C3=O)CC2)c1C,9.69%
7,Cc1ccc(S(=O)(=O)N2CCOCC2)cc1C(=O)Nc1ccccc1C(=O)O,-8.36%
8,O=S(=O)(Nc1ccc2nc(-c3cccc(Cl)c3)oc2c1)c1ccccc1,-3.46%
9,Cc1ccc2onc(CC(=O)N(C)c3ccccc3)c2c1,20.5%
10,CCc1ccc(CNC(=O)c2cc(-c3ccc(Br)s3)nc3ccccc23)cc1,-19.9%
11,O=C(Nc1ccccc1)c1cccc(S(=O)(=O)Nc2cccc(F)c2)c1,-18.8%
12,COc1cccc(-c2ccc3c(N)c(C(=O)NCc4ccc(Cl)cc4)sc3n2)c1,-4.14%
13,CCc1ccc(NC(=O)Cn2c(=O)oc3cc(S(=O)(=O)N4CCCCCC4)ccc32)cc1,3.27%
14,CC(C)Sc1ncc(Cl)c(C(=O)Nc2nnc(C(C)C)s2)n1,-1.96%
15,COc1cc(C)c(/C=C(\C#N)C(=O)Nc2ccc(C)cc2)cc1C(C)C,active: 74.7%
16,CN(C(=O)C(=O)Nc1ccc2nc3n(c(=O)c2c1)CCCCC3)c1cccc(C(F)(F)F)c1,0.688%
17,COc1ccc(-c2noc(-c3cccnc3NCc3ccco3)n2)cc1,17.4%
18,COc1ccc(O)c(CN2CCN(CCCc3ccccc3)C(CCO)C2)c1 (stereo not given),active: 74.8%
19,Cc1cccc(-n2c(=O)c3c(c4cc(C)ccc4n3C)n(CC(=O)NCCC3=CCCCC3)c2=O)c1,-1.53%
20,CCC1CN(C(=O)N2CCC(C(=O)NCCN(CC)CC)CC2)c2ccccc2O1 (stereo not given),-4.08%
21,CCOC(=O)CSc1nc2ccccc2c(=O)n1CCc1ccc(OC)c(OC)c1,16.1%
22,COc1ccc(-c2onc(C)c2C)cc1S(=O)(=O)NCC1CCN(Cc2ccccc2F)CC1,-14.3%
23,CCc1cccc(C)c1NC(=O)CSc1nc(C)cc(C)c1C(=O)Nc1ccccc1,-15%
24,CC(=O)Nc1cc(C(=O)NCc2ccc(C)cc2)ccc1Sc1ccc(C)cc1,-13.3%

row,SMILES,inhibition
1,O=C(CC(c1cccs1)N1Cc2ccccc2C1=O)Nc1ccc(F)c(Cl)c1 (stereo not given),-0.402%
2,C=CCC(CC=C)(CNC(=O)C(=O)Nc1cccc(C(F)(F)F)c1)c1ccccc1,-22.7%
3,CCc1ccc(-c2nc(CN3CCCC(C(=O)N4CCN(c5cc(Cl)ccc5C)CC4)C3)c(C)o2)cc1 (stereo not given),-8.89%
4,CCOC(=O)c1ccc(N2CCN(c3cccc(Cl)c3)CC2)c(NC(=O)Nc2ccc(OC)cc2OC)c1,0.34%
5,N#Cc1ccc(Nc2ccccc2)c(N)c1,active: 30.9%
6,COc1ccc(Cl)cc1NC(=O)CN(C)S(=O)(=O)c1ccc2c(c1)CCCN2C(C)=O,20.7%
7,O=C(Cn1c(-c2cccs2)cc2cc(Cl)ccc21)N1CCN(c2ccccc2)CC1,5.34%
8,CCc1ccc(NC(=O)c2sc3nc(C)c(Cl)c(C)c3c2N)cc1,5.75%
9,COc1ccc(-c2cccc(NS(=O)(=O)c3cc(C)c(OC)c(C)c3C)c2)nn1,-1.94%
10,CCOc1ccccc1C(=O)N1CC(=O)Nc2ccc(Cl)cc2C1c1ccccc1 (stereo not given),-17.3%
11,Cc1ccc(NC(=O)C2CCCN2S(=O)(=O)c2ccc3c(c2)CCCC(=O)N3)cc1C (stereo not given),10.5%
12,O=C(CN1CCN(c2ccccc2)CC1)Nc1ccc(Oc2ccccc2)cc1,active: 57.7%
13,COc1ccccc1CNC(=O)CSc1ncc2c(n1)-c1ccc(Cl)cc1N(Cc1ccccc1)S2(=O)=O,11.9%
14,COc1ccc(NC(=O)C(c2ccc(C)cc2)N(C)C(=O)Cc2cccs2)cc1 (stereo not given),3.46%
15,Clc1ccc(CN2CCC(Cc3ccccc3)CC2)cc1,active: 48.3%
16,Cc1cccc(-c2nn3c(=O)cc(CN4CCN(S(=O)(=O)c5ccc(Cl)cc5)CC4)nc3s2)c1,6.59%
17,CCC(C(=O)Nc1ccccc1C(=O)OC)n1nc(C)c2c(C)n(-c3ccc(C)cc3)nc2c1=O (stereo not given),-10.5%
18,COc1ccccc1C(=O)OCc1cc(=O)n2nc(C3CC3)sc2n1,4.01%
19,CC(C)Cn1c(N)c(C(=O)COC(=O)c2c(F)cccc2F)c(=O)n(C)c1=O,active: 45.2%
20,CCC1CCc2nc3sc(C(=O)Nc4ccc(F)c(Cl)c4)c(N)c3cc2C1 (stereo not given),-10.5%
21,Cc1ccc(C)c(NC(=O)c2ccc3c(c2)CCN3S(C)(=O)=O)c1,20.8%
22,Cc1nc(-c2ccc(Cl)cc2)sc1CCNC(=O)c1ccc(C(F)(F)F)cc1,-2.64%
23,Cc1ccc(C)c(NC(=O)CCn2nc(C)c3c(C)n(-c4ccccc4)nc3c2=O)c1,-7.15%
